Our source for the binding signal values is PMC12820563, “FoxP3 forms a head-to-head dimer in vivo and stabilizes its multimerization on adjacent microsatellites”.

The other results are listed elsewhere or left out.

The target in this experiment is T1, MBP-FoxP1dN (Mus musculus, UniProt P58462 326-579).
T1 sequence: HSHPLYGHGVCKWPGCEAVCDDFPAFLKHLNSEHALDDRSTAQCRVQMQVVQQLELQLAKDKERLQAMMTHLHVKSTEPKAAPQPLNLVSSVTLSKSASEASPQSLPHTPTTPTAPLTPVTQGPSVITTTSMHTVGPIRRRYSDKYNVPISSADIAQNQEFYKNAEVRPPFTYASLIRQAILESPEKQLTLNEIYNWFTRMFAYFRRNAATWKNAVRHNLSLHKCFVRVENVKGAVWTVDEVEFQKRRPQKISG
The experiment can be described thus: PD-seq (MBP pull-down with sequencing); 20 mM Tris-HCl pH 7.5, 100 mM NaCl, 1.5 mM MgCl2, 0.4 uM protein, 0.1 uM dsDNA library, 30 min, room temperature, amylose pull-down; high values mean tight binding. To be noted: protein: recombinant; tags: His6-MBP; chain copies: 2; dsDNA, one strand shown. In short, it runs like this:
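A degenerate double-stranded DNA library, filled in with Klenow, was added at 0.1 µM to 0.4 µM His6-MBP-tagged mouse FoxP3 or FoxP1 fragment lacking the N-terminus, expressed in E. coli. Incubation lasted 30 min at room temperature in Tris pH 7.5 buffer with NaCl and MgCl2, after which complexes were collected on amylose resin, washed three times, digested with proteinase K to free the DNA, barcoded by PCR and sequenced by Illumina. Binding is the pooled-replicate reads-per-million enrichment of pull-down over input.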
As for “GATGATTGTTCTCCCAGCTGATGAATTTGAATCCTCGAGTAAACAAATTTTCCTAATCTTTCTGTTCAAGCGCCATCTAC”, the binding signal was 0.822 RPM ratio (pull-down/input).

Regarding “GATGATTGTTCTCCCAGCTGATGAATTGATGCTATCGAGTAAACAAATTTTCCTAATCTTTCTGTTCAAGCGCCATCTAC”, the binding signal is 1.5 RPM ratio (pull-down/input).

In the case of “GATGATTGTTCTCCCAGCTGATGAATTGAGGAGCTCGAGTAAACAAATTTTCCTAATCTTTCTGTTCAAGCGCCATCTAC”, the binding signal was 0.714 RPM ratio (pull-down/input).

Take “GATGATTGTTCTCCCAGCTGATGAATTGTAGCGCTCGAGTAAACAAATTTTCCTAATCTTTCTGTTCAAGCGCCATCTAC”: the binding signal is 0.917 RPM ratio (pull-down/input).

For “GATGATTGTTCTCCCAGCTGATGAATTGTAGCTGTCGAGTAAACAAATTTTCCTAATCTTTCTGTTCAAGCGCCATCTAC”, the binding signal was 0.906 RPM ratio (pull-down/input).

With “GATGATTGTTCTCCCAGCTGATGAATTAGCGCCCTCGAGTAAACAAATTTTCCTAATCTTTCTGTTCAAGCGCCATCTAC”, the binding signal was 0.851 RPM ratio (pull-down/input).

In the case of “GATGATTGTTCTCCCAGCTGATGAATTTTGTGCCTCGAGTAAACAAATTTTCCTAATCTTTCTGTTCAAGCGCCATCTAC”, the binding signal is 1.06 RPM ratio (pull-down/input).

Regarding “GATGATTGTTCTCCCAGCTGATGAATTTAGCTGATCGAGTAAACAAATTTTCCTAATCTTTCTGTTCAAGCGCCATCTAC”, the binding signal was 0.957 RPM ratio (pull-down/input).

Turning to “GATGATTGTTCTCCCAGCTGATGAATTAGGCTGGTCGAGTAAACAAATTTTCCTAATCTTTCTGTTCAAGCGCCATCTAC”, the binding signal is 0.867 RPM ratio (pull-down/input).

As for “GATGATTGTTCTCCCAGCTGATGAATTAAAAATGTCGAGTAAACAAATTTTCCTAATCTTTCTGTTCAAGCGCCATCTAC”, the binding signal is 0.979 RPM ratio (pull-down/input).

In the case of “GATGATTGTTCTCCCAGCTGATGAATTGCTGCTCTCGAGTAAACAAATTTTCCTAATCTTTCTGTTCAAGCGCCATCTAC”, the binding signal is 0.964 RPM ratio (pull-down/input).

Turning to “GATGATTGTTCTCCCAGCTGATGAATTTAGAGACTCGAGTAAACAAATTTTCCTAATCTTTCTGTTCAAGCGCCATCTAC”, the binding signal was 0.958 RPM ratio (pull-down/input).

Regarding “GATGATTGTTCTCCCAGCTGATGAATTGTCACGGTCGAGTAAACAAATTTTCCTAATCTTTCTGTTCAAGCGCCATCTAC”, the binding signal was 0.924 RPM ratio (pull-down/input).

For the sequence “GATGATTGTTCTCCCAGCTGATGAATTTTAATATTCGAGTAAACAAATTTTCCTAATCTTTCTGTTCAAGCGCCATCTAC”, the binding signal was 1.14 RPM ratio (pull-down/input).

Consider “GATGATTGTTCTCCCAGCTGATGAATTAAGGTCTTCGAGTAAACAAATTTTCCTAATCTTTCTGTTCAAGCGCCATCTAC”, for which the binding signal was 0.841 RPM ratio (pull-down/input).

Turning to “GATGATTGTTCTCCCAGCTGATGAATTGTTACAGTCGAGTAAACAAATTTTCCTAATCTTTCTGTTCAAGCGCCATCTAC”, the binding signal was 1.24 RPM ratio (pull-down/input).

On to “GATGATTGTTCTCCCAGCTGATGAATTCACGGCTTCGAGTAAACAAATTTTCCTAATCTTTCTGTTCAAGCGCCATCTAC”, for which the binding signal was 0.796 RPM ratio (pull-down/input).

As to “GATGATTGTTCTCCCAGCTGATGAATTGTCATCATCGAGTAAACAAATTTTCCTAATCTTTCTGTTCAAGCGCCATCTAC”, the binding signal is 1.34 RPM ratio (pull-down/input).

For the sequence “GATGATTGTTCTCCCAGCTGATGAATTGGGTCATTCGAGTAAACAAATTTTCCTAATCTTTCTGTTCAAGCGCCATCTAC”, the binding signal is 0.917 RPM ratio (pull-down/input).

“GATGATTGTTCTCCCAGCTGATGAATTGACATGATCGAGTAAACAAATTTTCCTAATCTTTCTGTTCAAGCGCCATCTAC”: the binding signal was 1.33 RPM ratio (pull-down/input).

“GATGATTGTTCTCCCAGCTGATGAATTCTCGTGCTCGAGTAAACAAATTTTCCTAATCTTTCTGTTCAAGCGCCATCTAC”: the binding signal is 0.83 RPM ratio (pull-down/input).

Regarding “GATGATTGTTCTCCCAGCTGATGAATTCATAAACTCGAGTAAACAAATTTTCCTAATCTTTCTGTTCAAGCGCCATCTAC”, the binding signal is 1.07 RPM ratio (pull-down/input).

Turning to “GATGATTGTTCTCCCAGCTGATGAATTGTTCAGCTCGAGTAAACAAATTTTCCTAATCTTTCTGTTCAAGCGCCATCTAC”, the binding signal is 0.958 RPM ratio (pull-down/input).

Take “GATGATTGTTCTCCCAGCTGATGAATTATGGAAATCGAGTAAACAAATTTTCCTAATCTTTCTGTTCAAGCGCCATCTAC”: the binding signal is 1.08 RPM ratio (pull-down/input).

In the case of “GATGATTGTTCTCCCAGCTGATGAATTGGCCTCCTCGAGTAAACAAATTTTCCTAATCTTTCTGTTCAAGCGCCATCTAC”, the binding signal was 0.815 RPM ratio (pull-down/input).

As to “GATGATTGTTCTCCCAGCTGATGAATTTCAAATATCGAGTAAACAAATTTTCCTAATCTTTCTGTTCAAGCGCCATCTAC”, the binding signal was 0.914 RPM ratio (pull-down/input).

In the case of “GATGATTGTTCTCCCAGCTGATGAATTCTGGAGTTCGAGTAAACAAATTTTCCTAATCTTTCTGTTCAAGCGCCATCTAC”, the binding signal was 0.784 RPM ratio (pull-down/input).

Regarding “GATGATTGTTCTCCCAGCTGATGAATTAATAAACTCGAGTAAACAAATTTTCCTAATCTTTCTGTTCAAGCGCCATCTAC”, the binding signal is 1.33 RPM ratio (pull-down/input).

Consider “GATGATTGTTCTCCCAGCTGATGAATTGGTACGTTCGAGTAAACAAATTTTCCTAATCTTTCTGTTCAAGCGCCATCTAC”, for which the binding signal is 0.983 RPM ratio (pull-down/input).

In the case of “GATGATTGTTCTCCCAGCTGATGAATTCAGCTACTCGAGTAAACAAATTTTCCTAATCTTTCTGTTCAAGCGCCATCTAC”, the binding signal was 0.827 RPM ratio (pull-down/input).

Regarding “GATGATTGTTCTCCCAGCTGATGAATTCTGGAACTCGAGTAAACAAATTTTCCTAATCTTTCTGTTCAAGCGCCATCTAC”, the binding signal is 0.76 RPM ratio (pull-down/input).

“GATGATTGTTCTCCCAGCTGATGAATTTTTATTTTCGAGTAAACAAATTTTCCTAATCTTTCTGTTCAAGCGCCATCTAC”: the binding signal was 2.75 RPM ratio (pull-down/input).
